Experimental findings from doi:10.1101/2025.11.26.690829, “TDP-43 controls RNA structure through high affinity lattice interactions” (bioRxiv, 2025) are described below.

The series concerns the molecule itself. As to the kind of experiment: native gel or EMSA; 5 pM 32P-labelled (GU)12 RNA with increasing NTD-RBD up to 10 uM; 20 mM BIS-TRIS pH 7.0, 150 mM LiCl, 1 mM TCEP, 1 mM EDTA; room temperature; third, slower species seen above the 2:1 protein-RNA complex.

B1: TDP-43 NTD-RBD ([…]) (domain or fragment)
chain: not shown
notes: lacks the C-terminal domain; source: E. coli BL21(DE3) pLysS, purified (Ni-NTA, HiTrap Heparin)
In the case of B1, the binding result was “binds”.
